# Measured values taken from PubChem BioAssay AID488969 (Vanderbilt High Throughput Screening Facility, 2010).
# Over roughly 110,000 compounds, “z-score” has its median near -0.1; the highest 2% begin near 2. The list shows a part of the results.
# Molecular target: Metabotropic glutamate receptor 8 (Rattus norvegicus) (UniProt P70579)
# Experiment: mGluR8 Gi/Go-coupled signaling modulation – cell-based, rat, thallium flux, HTS, primary screen (AID 488969)
# Settings: HEK293 rat mGluR8, GIRK (G protein-gated inwardly rectifying potassium channel) thallium flux, FluoZin2; at 10 µM; stronger effect = higher value; submaximal glutamate (EC20) added with thallium
# Chain of UniProt P70579 (P70579 whole entry, looked up): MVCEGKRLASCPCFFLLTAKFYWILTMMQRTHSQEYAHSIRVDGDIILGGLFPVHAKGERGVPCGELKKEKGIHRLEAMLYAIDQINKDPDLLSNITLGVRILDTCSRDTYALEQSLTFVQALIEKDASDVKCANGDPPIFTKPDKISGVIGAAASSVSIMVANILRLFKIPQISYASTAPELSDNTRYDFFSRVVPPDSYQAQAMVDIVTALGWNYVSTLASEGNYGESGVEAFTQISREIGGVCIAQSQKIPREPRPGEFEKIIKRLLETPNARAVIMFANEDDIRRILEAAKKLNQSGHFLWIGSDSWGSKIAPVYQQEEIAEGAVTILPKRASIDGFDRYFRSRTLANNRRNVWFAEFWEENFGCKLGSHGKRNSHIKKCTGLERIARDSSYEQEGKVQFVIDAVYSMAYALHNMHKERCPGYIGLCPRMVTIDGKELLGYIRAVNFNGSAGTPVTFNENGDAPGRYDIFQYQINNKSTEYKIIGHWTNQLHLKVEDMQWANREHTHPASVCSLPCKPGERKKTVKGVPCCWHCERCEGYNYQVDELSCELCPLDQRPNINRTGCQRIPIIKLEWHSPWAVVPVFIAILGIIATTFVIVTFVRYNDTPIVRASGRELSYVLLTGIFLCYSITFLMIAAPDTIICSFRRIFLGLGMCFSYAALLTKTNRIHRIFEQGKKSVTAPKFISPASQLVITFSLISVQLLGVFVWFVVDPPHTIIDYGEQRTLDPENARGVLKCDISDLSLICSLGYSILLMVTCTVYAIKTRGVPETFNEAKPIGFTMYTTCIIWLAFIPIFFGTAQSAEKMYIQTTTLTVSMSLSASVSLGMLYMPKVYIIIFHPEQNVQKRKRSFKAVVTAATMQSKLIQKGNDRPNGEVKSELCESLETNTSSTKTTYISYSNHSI
row,SMILES,z-score
1,COc1cc(OC)c(OC)cc1/C=C/C(=O)c1ccc(NS(=O)(=O)c2ccc(C)cc2)cc1,0.146
2,O=C(CCC(=O)c1ccc(Oc2ccccc2)cc1)Nc1ccc(Cl)cc1Cl,0.0353
3,Cc1ccc(S(=O)(=O)Nc2ccc3nc(C)sc3c2)cc1,-0.613
4,CC(=O)c1cccc(NC(=O)Nc2ccc(C(=O)N3CCOCC3)cc2)c1,0.0588
5,CN1C(=O)C2(Oc3ccccc3C3CC(c4ccccc4)=NN32)c2ccccc21 (stereo not given),0.0396
6,O=C(NC(c1ccccc1)C(Cl)Cl)c1ccccc1 (stereo not given),-0.428
7,CC(C)(C)C(=O)Nc1ccc(-c2cn3ccsc3n2)cc1,-1.44
8,O=C(/C=C(\c1ccc(Cl)cc1)n1cncn1)c1ccc(Cl)cc1,0.0724
9,O=C(Cn1cnc2ccccc2c1=O)N1CCN(Cc2ccc3c(c2)OCO3)CC1,0.143
10,COc1ccc2c(c1OC)C(=O)N1c3ccccc3SC21 (stereo not given),0.0179
11,O=C(NC1CCc2ccccc21)C1CCN(S(=O)(=O)c2ccc(Cl)cc2)CC1 (stereo not given),2.31
12,COc1ccc2c(CC(=O)NCc3ccc4c(c3)OCO4)coc2c1,-0.144
13,CCOC(=O)c1ccccc1NC(=O)CSc1nnc(Cc2cccn2C)n1-c1ccc(F)cc1,-1.63
14,CCCCC(=O)Nc1ccc(C(=O)OC2CCCCC2)cc1,1.36
15,COC(=O)c1ccc(Cl)c(NC(=O)NC23CC4CC(CC(C4)C2)C3)c1,0.74
16,CCN(CC)S(=O)(=O)c1cccc(NC(=O)COc2ccc(Cl)cc2Br)c1,0.628
17,COc1cc(OC)c(-c2cc(C(=O)O)ccc2OC)c(OC)c1,-0.305
18,O=C(c1ccccc1)n1ccn(-c2ccccc2)c1=S,-1.09
19,Cc1ccc(SCC(=O)c2c(C)[nH]c3ccccc23)cc1,-0.725
20,C=CCn1c(SCC(=O)NCCc2ccccc2)nnc1C(C)NC(=O)c1cccs1 (stereo not given),0.0814
21,COc1ccccc1C(=O)Nc1ccc2c(c1)OCO2,0.246
22,CC(C)COP(=O)(c1ccc(N(C)C)cc1)C(O)c1ccncc1 (stereo not given),-0.817
23,Cc1ccc(S(=O)(=O)NCCc2ccccc2)cc1,-0.206
24,O=C(Nc1ccc(F)cc1)C(c1ccccc1)N1CCN(S(=O)(=O)c2c(F)cccc2F)CC1 (stereo not given),-0.642
25,O/N=C\c1ccc(-c2ccccc2)o1,-0.209
26,Cc1ccc(/C=c2\sc3nc(-c4ccccc4Br)nn3c2=O)o1,0.427
27,O=C(COC(=O)C1(c2ccccc2)CC1)N1CCN(c2ccc(F)cc2)CC1,-0.512
28,CC1=C(Sc2nc3ccccc3[nH]2)C(=O)NC(C)(C)C1,-0.124
29,Cc1cc(C)cc(NC(=O)CSc2cc(C(=O)c3nccn3C)c3ccccc3n2)c1,-0.0759
30,O=C(Oc1ccc(Cl)c2cccnc12)C12CC3CC(CC(C3)C1)C2,-0.248
